# PMC4336329 (PLoS ONE, 2015)
# Out of some 310,000 compounds screened, about 14,000 (4.5%) showed an effect of 50% or more. The effect is printed as a negative number. Some of the results follow. Where a SMILES comes first, the peptide text is derived from it. [ ]: non-standard residue; d: D form. The star is where a group is joined. ξ: configuration not given here. Cbz = O=C(OCc1ccccc1)*; OBn = c1ccc(CO*)cc1; ξP = O=C(O)C1CCCN1
# Target: human ether-à-go-go-related gene (hERG) potassium channel (human, UniProt Q12809)
# Experiment: primary screen, population patch clamp on CHO cells stably expressing hERG
# 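Note: peak tail current of the secondary pulse compared with the same well before compound.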
# human ether-à-go-go-related gene (hERG) potassium channel, sequence (Q12809 whole entry, looked up): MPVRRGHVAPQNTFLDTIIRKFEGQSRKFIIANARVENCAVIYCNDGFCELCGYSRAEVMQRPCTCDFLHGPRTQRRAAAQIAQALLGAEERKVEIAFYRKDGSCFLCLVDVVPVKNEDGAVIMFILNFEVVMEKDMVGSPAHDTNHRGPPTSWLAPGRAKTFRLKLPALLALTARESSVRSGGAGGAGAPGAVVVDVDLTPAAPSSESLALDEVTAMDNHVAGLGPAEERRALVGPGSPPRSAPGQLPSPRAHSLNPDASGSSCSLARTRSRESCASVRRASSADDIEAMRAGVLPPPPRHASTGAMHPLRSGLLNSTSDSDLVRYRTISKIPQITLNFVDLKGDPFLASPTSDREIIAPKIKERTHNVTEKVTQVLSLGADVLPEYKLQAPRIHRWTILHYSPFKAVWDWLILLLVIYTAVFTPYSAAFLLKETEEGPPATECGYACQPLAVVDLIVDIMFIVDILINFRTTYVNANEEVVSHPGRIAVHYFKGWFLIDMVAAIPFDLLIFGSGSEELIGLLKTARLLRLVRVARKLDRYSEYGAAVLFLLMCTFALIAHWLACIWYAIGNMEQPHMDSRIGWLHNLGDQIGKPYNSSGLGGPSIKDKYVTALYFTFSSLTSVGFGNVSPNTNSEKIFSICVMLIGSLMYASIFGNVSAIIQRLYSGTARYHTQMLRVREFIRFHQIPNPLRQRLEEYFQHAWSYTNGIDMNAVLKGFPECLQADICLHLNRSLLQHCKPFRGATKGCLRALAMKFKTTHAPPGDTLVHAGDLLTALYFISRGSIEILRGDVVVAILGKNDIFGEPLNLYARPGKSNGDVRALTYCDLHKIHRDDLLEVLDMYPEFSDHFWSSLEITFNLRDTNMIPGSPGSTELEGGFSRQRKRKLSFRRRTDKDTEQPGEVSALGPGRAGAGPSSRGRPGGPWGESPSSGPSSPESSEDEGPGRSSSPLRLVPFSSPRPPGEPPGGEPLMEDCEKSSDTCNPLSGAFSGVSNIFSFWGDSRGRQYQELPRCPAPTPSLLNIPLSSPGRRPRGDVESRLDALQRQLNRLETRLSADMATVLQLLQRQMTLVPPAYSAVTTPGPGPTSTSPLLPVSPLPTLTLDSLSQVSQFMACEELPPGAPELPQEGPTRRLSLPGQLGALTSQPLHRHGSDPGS
row,Structure (SMILES),"hERG current change (%, negative = inhibition) at 10uM [%]"
1,CCOC(=O)c1sc(/N=C/c2c(O)n(-c3ccccc3)c(=O)[nH]c2=O)c(C#N)c1C,15.7
2,CCOC(=O)N1CCC(N2Cc3cccc(C(=O)Nc4ccc(N(CC)CC)cc4C)c3C2=O)CC1,-7.16
3,O=C(NCC1CCCO1)c1ccc(NC(=O)C2CC=CCC2C(=O)O)cc1 (centres unmarked),12.2
4,COC(=O)c1cn(-c2ccccc2)nc1C(=O)OC,-9.6
5,Cc1cccc(CCNC(=O)c2cc(S(=O)(=O)N3CCCCC3)c[nH]2)c1,-15.6
6,O=C(CN1CCN(Cc2ccc(Cl)cc2)CC1)N/N=C/c1ccncc1,-80.1
7,O=C(O)Cn1nnnc1-c1ccc(F)cc1,-5.4
8,COc1cccc(-c2ncc3ccccc3c2COC(=O)c2ccc(C(F)(F)F)cc2)c1,13.6
9,Cc1ccc(C(=O)N2CCC(C(=O)NC3CCCC3)CC2)cc1,4.81
10,O=C(CSc1nnc(-c2ccco2)o1)NC(=O)C1COc2ccccc2O1 (centres unmarked),-4.34
11,O=C(CCCC(=O)N1CCN(c2ccccc2F)CC1)c1ccccc1,-10.7
12,COCC(=O)N1CCC(n2nccc2NC(=O)c2ccccc2OC)CC1,-1.85
13,CCOC(=O)[C@H](CCc1ccccc1)N[C@@H](C)C(=O)N1[C@H](C(=O)O)C[C@@H]2CCC[C@@H]21,10.7
14,O=C(COC(=O)c1ccc(NS(=O)(=O)c2cccs2)cc1)NCC1CCCO1 (centres unmarked),4.94
15,O=C(CNC(=O)OCc1ccccc1)NCC(=O)N1CCCC1C(=O)OCc1ccccc1 (stereo not drawn) (Cbz-Gly-Gly-[ξP]-OBn),-19.3
16,O=C(O)CCC(=O)N1N=C(c2cccs2)CC1c1cn(-c2ccccc2)nc1-c1ccccc1 (centres unmarked),-5.28
17,Cc1nc2ccc(C(=O)Nc3ccccc3Cl)cc2s1,10.5
18,CCN(CC)S(=O)(=O)c1ccc(N2CCCC2)c(NC(=O)C2CSC3(C)CCC(=O)N23)c1 (centres unmarked),-24.9
19,O=C(C/C=N/OCc1ccc(Cl)cc1Cl)c1ccc(Cl)cc1,-3.48
20,COc1ccc(CN2C(=O)CCC(C(=O)O)C2c2ccccc2)cc1 (centres unmarked),25.6
21,S=c1[nH]nc(Cn2nnc3ccccc32)n1-c1ccc(Cl)cc1,17.2
22,CCCOC(=O)c1[nH]c2c(c1C)C(=O)CC(c1ccc(OC)c(OC)c1)C2 (centres unmarked),-4.07

row,Structure (SMILES),"hERG current change (%, negative = inhibition) at 10uM [%]"
1,O=C(/C=C/c1ccccc1)CC(O)(c1ccccc1)C(F)(F)C(F)F (centres unmarked),8.24
2,CC(=O)Nc1cc(C(=O)N2CCCC2)ccc1Sc1ccc(C)cc1,-30.5
3,CCOCCCNC(=O)c1cn(CC)c2ccc(S(=O)(=O)N(C)C3CCCCC3)cc2c1=O,-55.7
4,Cc1cc(NC(=O)Nc2cc(F)ccc2C)n(C)n1,13
5,COc1ccccc1N1CCN(S(=O)(=O)c2cccc(F)c2)CC1,-0.649
6,CCCc1cc2c(cc1NC(=O)c1ccc(C)cc1)OCO2,0.769
7,OCc1ccc(OCCCOc2cccc3cccnc23)cc1,-9.43
8,Cc1ccccc1NC(=S)NCC1CCN(C(C)c2ccccc2)C1 (centres unmarked),6.64
9,CC(=O)CCSc1nnc(-c2cccc(S(=O)(=O)N3CCOCC3)c2)o1,-8.52
10,COc1ccc(CC(C)N2CCN(Cc3ccccc3)CC2)c(OC)c1 (centres unmarked),-75.3
11,COc1ccc(CC2SC(=Nc3ccc(F)cc3)NC2=O)cc1 (centres unmarked),9.95
12,CCCSc1nnc(-c2ccccc2N)c(=O)[nH]1,-2.4
13,Cc1nn(C)cc1/C=N\NC(=O)Cc1ccc([N+](=O)[O-])cc1,-16.6
14,CNS(=O)(=O)c1cc(NC(=O)c2cncn2-c2ccccc2)ccc1C,11.7
15,CC(C)n1cc(C(N)=S)c(=O)n(Cc2ccccc2)c1=O,21.5
16,Cc1cc(CNC(=O)Cc2ccc(F)cc2)c2ccccc2n1,-14.7
17,COC(=O)c1ccc(NC(=O)CN2CCCC2)cc1,5.33
18,Cc1ccc(/C=N/NC(=O)c2nnn(-c3nonc3N)c2CNc2ccccc2)cc1,9.21
19,COc1cc(SC)ccc1C(=O)Nc1ccc2c(c1)CCC2,13.1
20,Cc1ccccc1Cn1c(=O)n(CCCC(=O)NCc2ccco2)c(=O)c2ccccc21,-15.5
21,CC(C)CN1CCC(=O)N([C@H](CO)Cc2ccccc2)CC1,6.64
22,Cc1cc(-c2ccccc2)nc(N(C)C)c1S(C)(=O)=O,20.1

row,Structure (SMILES),"hERG current change (%, negative = inhibition) at 10uM [%]"
1,Cc1ccnc(-n2sc3ccccc3c2=O)n1,14.7
2,COc1cccc(CN2CCN(S(=O)(=O)c3ccc(Cl)s3)CC2)c1,-46.3
3,Cc1ccccc1CN1C[C@@H]2C[C@@H](c3cnc(N4CCOCC4)s3)N3CCC[C@@]23C1=O,1.74
4,Cc1ccc(-c2ccc(C(=O)NCc3ccc(Cl)cc3)o2)c2ccccc12,6.33
5,CC(=O)N1c2c(cc(Br)cc2S(=O)(=O)N2CCN(C(=O)c3ccco3)CC2)CC1C (centres unmarked),-5.52
6,CCOC(=O)CN1C(=O)N[C@H](c2ccc(Br)cc2)C(C(C)=O)=C1C,6.7
7,CN=c1scc(-c2cc(OC)ccc2OC)n1/N=C/c1c(C)[nH]c2ccccc12,8.19
8,COc1cc(/C=N/Nc2nn3cnnc3c3ccccc23)cc(OC)c1OC,4.25
9,COc1ccc(/C=C/C(=O)NC(=S)NNC(=O)c2cccnc2)cc1OC,11.1
10,Cl.O=C(CN1CCCC1)N1c2ccccc2C=Cc2ccccc21,1.12
11,CCn1c(=O)c(CCC(=O)N2CCN(c3ccccn3)CC2)c(C)c2c(C)nn(-c3ccccc3)c21,-17.8
12,CCOc1ccc(NC(=O)c2ccccc2NC(=O)CN(C)CC(=O)Nc2ccc(C)cc2)cc1,-2.68
13,CCOC(=O)N1CCN(Cc2nc3c(c(=O)n(C)c(=O)n3C)n2Cc2ccc(F)cc2)CC1,-36.2
14,O=C(CCSc1ccc(Cl)cc1)NCc1ccncc1,-32.7
15,Cc1ccc(NC(=O)N2CCCC(c3nc(-c4ccc(F)cc4)no3)C2)cc1 (centres unmarked),-16.4
16,O=C(O)c1ccccc1Nc1ccccc1C(=O)O,-2.63
17,CCCc1ccc2oc(C(=O)N(Cc3ccncc3)CC3CCCO3)c(C)c2c1 (centres unmarked),-71.6
18,O=S1(=O)CCN(Cc2ccc(F)cc2)CC1,10.5
19,COc1cc(/C=C/C(=O)OCC(=O)NC2CCS(=O)(=O)C2)ccc1OC(F)F (centres unmarked),-14
20,O=C(CSc1nc2ccc([N+](=O)[O-])cc2s1)NCC1CCCO1 (centres unmarked),-54.4
21,Cc1c(C(=O)N2CCN(c3ccc([N+](=O)[O-])cc3)CC2)oc2ccccc12,-72.8
22,CCC(C)NC(=O)c1ccc([N+](=O)[O-])c(Cl)c1 (centres unmarked),-3.97

row,Structure (SMILES),"hERG current change (%, negative = inhibition) at 10uM [%]"
1,CCOc1ccc(-c2nnn(CC(=O)Nc3cccc(OC)c3)n2)cc1OCC,6
2,Cn1cnnc1Sc1nc2c(c(=O)n(C)c(=O)n2C)n1Cc1ccccc1Cl,-23.7
3,COc1ccccc1Nc1nc(-c2sc(NC(=O)c3ccccc3)nc2C)cs1,15.7
4,COc1ccc(NC(C)=O)cc1NC(=O)CN1CCN(S(=O)(=O)c2ccc(C(C)C)cc2)CC1,-9.86
5,c1ccc(OCc2nnc3n2N=C(c2ccccc2)CS3)cc1,-31.8
6,Cc1nn(-c2nc3ccccc3n2Cc2ccccc2)c2c1C(=O)CC(C)(C)C2,-34
7,CCOC(=O)c1c(C)nc(-c2ccccc2)nc1NC(C)=O,-10.2
8,Clc1cccc(Cl)c1/C=N\Nc1nccs1,-2.98
9,CCc1ccc(NC(=O)CN2CCCN(S(=O)(=O)c3ccc(F)cc3)CC2)cc1,-63.9
10,CCOc1ncccc1C(=O)OCC(=O)NC1CC1,15.5
11,CCCCn1nc2cc(C(=O)NCC34CC5CC(CC(C5)C3)C4)ccc2c1OCC,-13.9
12,CCOc1ccc(/C(O)=C2/C(=O)C(=O)N(Cc3cccnc3)C2c2ccc(N(C)C)cc2)c(C)c1 (centres unmarked),-31.3
13,Cc1ccc(S(=O)(=O)N2CCN(C(=O)c3ccccn3)CC2)cc1,9.2
14,O=C(O)C(=O)O.O=C(c1cccs1)N1CCN(Cc2ccccn2)CC1,28.1
15,O=C(CSc1nc2c(cnn2-c2ccc(F)cc2)c(=O)[nH]1)N1CCCCCC1,0.0971
16,CN(Cc1ccco1)S(=O)(=O)c1nnc(NC(=O)c2cccc(Cl)c2)s1,13.3
17,C=C(C)C(=O)OC1(C(F)(F)F)Oc2cc(C)ccc2NC1=O (centres unmarked),6.5
18,O=C(Nc1ncc(Cc2ccccc2)s1)c1cccs1,2.03
19,COc1ccc(C(C(=O)NC(C)(C)C)N(C(=O)CCC(=O)Nc2cc(C)on2)c2c(C)cccc2C)cc1 (centres unmarked),13.3
20,O=C(COC(=O)COc1cccc(C(F)(F)F)c1)NC(=O)NC1CCCCC1,-1.9
